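Five concentrations, 48 hours, 96-well plates. GI50 marks 50% less growth. At the TGI there is no net growth.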 A value given as a limit tells only on which side of the number the result lay.

For this assay, the system named is NCI-H322M lung. Kind of assay: growth of human tumour cells (NCI), 48 h.
Regarding `NCCCCCCNCc1cccc2ccccc12`, the TGI was over 100 µM.

Consider `CC[P+]1(c2ccccc2)[C@@H](C)CC[C@@H]1C`, for which the TGI was over 100 µM. The same measure, in the same setting: the value for `CC(=O)N(O)Cc1ccccc1` was over 100 µM. As for `CN1CCN(Cc2ccc3c(NNC(=O)c4ccccc4)nc4cc(F)ccc4n23)CC1`, the GI50 was 0.345 µM and the TGI is over 100 µM.

With `Cc1ccc(NC(=O)/C(=N/N(C)C)C(C2OC(=O)c3ccccc32)[N+](=O)[O-])cc1` (centres undefined), the TGI was over 100 µM. `NC1Cc2ccccc2OC1=O` (centres undefined) gave a TGI of over 100 µM.

`COc1c2c(cc3c1C1(O)Cc4ccc5c(c4C[N+]1(C)CC3)OCO5)OCO2` (centres undefined) showed a TGI of over 100 µM.

For the compound `Cc1cc(O)c(/C=N/C(=S)Nc2ccccc2)c(=O)o1`, the TGI was over 100 µM.

Consider `Cc1c(C(N)=O)sc2c1c(=O)n(Cc1ccccc1)c1nnc(-c3ccc(Br)cc3)n21`, for which the GI50 was 1.38 µM and the TGI was found to be 21.8 µM. The corresponding values for `CCOC(=O)c1ccc2c(c1)[n+](=O)c(C(C)=O)c(C(F)(F)F)n2[O-]` are 2.67 µM and 9.84 µM. `CSCCCNC(=O)c1csc(-c2csc(CCNC(=O)CNC(=O)CNC(=O)OC(C)(C)C)n2)n1` displayed a TGI of over 100 µM.

In the case of `CCN(CC)CCn1[nH]c2c3ccc(=O)cc3sc3c(NCCN)ccc1c32`, the TGI came to 3.29 µM. `CO[C@@H]1C[C@H](OC(N)=O)[C@@H]2C=C[C@@H]3/C=C(C)/C=C/[C@@H](C)[C@H](/C(C)=C/[C@@H](C)NC(C)=O)OC(=O)/C=C/C=C(C)\C=C\[C@]3(C)[C@@H]2C1`: the TGI stood at 5.89 µM. With `CCOC(=O)/C=C/C(=O)[C@H](CC(C)C)NC(=O)[C@H](Cc1ccccc1)NC(=O)OCc1ccccc1`, the GI50 is 13.7 µM and the TGI came to 28.5 µM. On to `O=[N+]([O-])/C(C(Cl)=C(Cl)Cl)=C(\N1CCCCC1)n1nnc2ccccc21`, for which the TGI came to 32.4 µM. The same measure, in the same setting: the value for `c1ccc2c(c1)ccn1ccc3c4ccccc4nc-3c21` was 1.78 µM; that for `Cc1ccc(O)c(C2=CC(c3cccc(Br)c3)SC(N)=N2)c1` (centres undefined) was over 100 µM. The same measure, in the same setting: the figure for `CCN(CC)CCCNc1[nH]ncc2c(C)c3nc4ccc(OC)cc4c3cc12` is 2.79 µM. For the compound `O=C(NCCNc1nccc(-c2c(-c3cccc(O)c3)nc3sccn23)n1)c1ccccc1`, the GI50 is 26.3 µM and the TGI is over 100 µM. `CCOC(=O)Cc1cnc(NC(NC(=O)CC)(C(F)(F)F)C(F)(F)F)s1`: the TGI is over 100 µM.

As for `CNS(=O)(=O)OCC1OC(n2cnc3c(N)ncnc32)C(O)C1O` (centres undefined), the GI50 was over 100 µM and the TGI is over 100 µM. For the compound `N#CN1CC[C@H](C(=O)Nc2cc3cc(C(N)=O)ccc3cn2)C1`, the GI50 was 0.112 µM and the TGI is 3.67 µM. The corresponding values for `O=C(Nc1cc(Oc2cc(F)c(NC(=O)C3(C(=O)Nc4ccc(F)cc4)CC3)cc2F)ccn1)C1CC1` are 2.85 µM and 8.52 µM. The corresponding values for `C=C1C(=O)O[C@H]2[C@H]1CC/C(COC(=O)NCCc1c[nH]c3ccc(Cl)cc13)=C\CC[C@@]1(C)O[C@@H]21` are 5.17 µM and 17.2 µM. The compound `COc1ccc2nc3n(c2c1)C(=O)c1ccccc1-3` returned a TGI of over 100 µM.
